The full ranking holds about 81,000 sequences; the median of “one-hybrid fitness for binding NBS DNA” is about -0.1, and the highest 2% start at about 0.36. The list shows a part of the results.
B1: Caulobacter ParB omega fusion; a variant is named by its letters at X, in order, B8GW30 (parent)
chain: MESVVVGEPGMSEGRRGLGRGLSALLGEVDAAPAQAPGEQLGGSREAPIEILQRNPDQPRRTFREEDLEDLSNSIREKGVLQPILVRPSPDTAGEYQIVAGERAWRAAQRAGLKTVPIMVRELDDLAVLEIGIIENVQRADLNVLEEALSYKVLMEKFERTQENIAQTIGKSXSHVANXMRLLXLPDEVQSYLVSGELTAXHARAIAAAADPVALAKQIIEGGLSVRETEALARKAPNLSAGKSKGGRPPRVKDTDTQALESDLSSVLGLDVSIDHRGSTGTLTITYATLEQLDDLCNRLTRGI

Variants of: B1
Assay: one-hybrid fitness for binding NBS DNA (the Noc-binding site; scaled: cognate 1, non-cognate 0); higher = stronger binding
Settings: with NBS DNA site
Procedure, shortened: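 The reporter was HIS3, with the binding site 19 bp from the promoter, in E. coli USO used for bacterial one-hybrid selection of Caulobacter ParB libraries with four specificity codons randomised. Growth was on M9 lacking histidine, with 0.1 mM IPTG and 5 mM 3-AT, for 48 hours at 37°C. Illumina sequencing covered plasmids before and after selection; three replicate libraries were pooled and variants with under 10 reads dropped. A fitness score is the log change in variant-to-wild-type read ratio, rescaled to the cognate and non-cognate references.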

Variant | one-hybrid fitness for binding NBS DNA
QQAY | 0.228
QACL | ≤ 0.2
QWAE | ≤ 0.2
ARIT | ≤ 0.2
GVRV | ≤ 0.2
YPAM | ≤ 0.2
RQQV | ≤ 0.2
GITG | ≤ 0.2
RLTL | ≤ 0.2
PKVS | ≤ 0.2
RTDK | ≤ 0.2
SLNN | ≤ 0.2
SVLW | ≤ 0.2
RKCR | 0.552
IVWV | ≤ 0.2
QKKV | 0.406
WNPR | ≤ 0.2
PALG | 0.248
LCGD | ≤ 0.2
NKRL | ≤ 0.2
SMLD | ≤ 0.2
KRWV | ≤ 0.2
MVCR | ≤ 0.2
PEPL | ≤ 0.2

Variant | one-hybrid fitness for binding NBS DNA
DKCS | ≤ 0.2
YYWR | ≤ 0.2
QGHE | ≤ 0.2
MTIP | ≤ 0.2
DTLG | ≤ 0.2
QHYD | ≤ 0.2
VVGG | ≤ 0.2
MSWC | ≤ 0.2
FTIR | ≤ 0.2
RVFM | ≤ 0.2
PYRY | ≤ 0.2
DKVY | ≤ 0.2
GTHR | ≤ 0.2
HARA | ≤ 0.2
APES | ≤ 0.2
RVPN | ≤ 0.2
CEHR | ≤ 0.2
QTFW | ≤ 0.2
SPDY | ≤ 0.2
YPEI | ≤ 0.2
HYMF | ≤ 0.2
SDMT | ≤ 0.2
RMTP | ≤ 0.2
QLPC | ≤ 0.2

Variant | one-hybrid fitness for binding NBS DNA
RCGR | 0.523
LSDL | ≤ 0.2
VQLM | ≤ 0.2
QYKA | 0.531
DRTW | ≤ 0.2
ALMR | ≤ 0.2
GSRN | ≤ 0.2
MHLF | ≤ 0.2
TPVP | ≤ 0.2
GKEC | ≤ 0.2
HLCP | ≤ 0.2
QMWS | 0.261
GVFS | ≤ 0.2
LMTV | ≤ 0.2
IDTI | ≤ 0.2
QSFP | ≤ 0.2
LTGN | ≤ 0.2
LKWR | ≤ 0.2
YSQS | ≤ 0.2
LSWT | ≤ 0.2
MNRS | ≤ 0.2
VNSC | ≤ 0.2
RMID | ≤ 0.2
AMSS | ≤ 0.2

Variant | one-hybrid fitness for binding NBS DNA
VKAR | ≤ 0.2
LIYT | ≤ 0.2
KHNG | ≤ 0.2
CHLN | ≤ 0.2
IETS | ≤ 0.2
DDIT | ≤ 0.2
TFQS | ≤ 0.2
RPDL | ≤ 0.2
HADL | ≤ 0.2
RSRC | 0.355
RPLQ | ≤ 0.2
EPDR | ≤ 0.2
VMTF | ≤ 0.2
IYTA | ≤ 0.2
TNAM | ≤ 0.2
PLAQ | ≤ 0.2
PFHS | ≤ 0.2
GYMF | ≤ 0.2
QLRR | 0.943
DDRL | ≤ 0.2
NERL | ≤ 0.2
KNKM | ≤ 0.2
YPDW | ≤ 0.2
AQSE | ≤ 0.2

Variant | one-hybrid fitness for binding NBS DNA
TTRH | ≤ 0.2
MHPG | ≤ 0.2
FGGI | ≤ 0.2
MIMG | ≤ 0.2
GANL | ≤ 0.2
ASPK | ≤ 0.2
RMRH | 0.362
NRMY | ≤ 0.2
PITC | ≤ 0.2
GWFS | ≤ 0.2
TEWV | ≤ 0.2
LYAF | ≤ 0.2
RKAQ | ≤ 0.2
PRIW | ≤ 0.2
CRTD | ≤ 0.2
VCLK | ≤ 0.2
GSYS | ≤ 0.2
VSRY | ≤ 0.2
KAGL | ≤ 0.2
PFTY | ≤ 0.2
SPKS | ≤ 0.2
CKYG | ≤ 0.2
TCDS | ≤ 0.2
WVTG | ≤ 0.2

Variant | one-hybrid fitness for binding NBS DNA
RMSL | ≤ 0.2
KQRT | 0.225
YDLR | ≤ 0.2
YGAT | ≤ 0.2
RCTN | ≤ 0.2
GFEG | ≤ 0.2
QPRK | ≤ 0.2
QGTS | ≤ 0.2
QMFC | ≤ 0.2
YAFL | ≤ 0.2
PKGR | ≤ 0.2
QCPF | ≤ 0.2
DVPT | ≤ 0.2
EVYD | ≤ 0.2
HNNP | ≤ 0.2
KHAR | ≤ 0.2
WVEL | ≤ 0.2
QMEF | ≤ 0.2
NILF | ≤ 0.2
SVKD | ≤ 0.2
KDKT | ≤ 0.2
RQGV | ≤ 0.2
KQAT | ≤ 0.2
GPRV | ≤ 0.2

Variant | one-hybrid fitness for binding NBS DNA
MHRY | ≤ 0.2
SLQS | ≤ 0.2
NMAL | ≤ 0.2
NRRF | ≤ 0.2
GSPL | ≤ 0.2
RVEM | ≤ 0.2
LPID | ≤ 0.2
RPMN | ≤ 0.2
QDDA | ≤ 0.2
MFSF | ≤ 0.2
QIEW | ≤ 0.2
HLPP | ≤ 0.2
WRYA | ≤ 0.2
VMPS | ≤ 0.2
LCSG | ≤ 0.2
VGME | ≤ 0.2
RKST | 0.639
AFEY | ≤ 0.2
DYSA | ≤ 0.2
AKCK | ≤ 0.2
SRPI | ≤ 0.2
RIMI | ≤ 0.2
GRHG | ≤ 0.2
RAMI | ≤ 0.2

Variant | one-hybrid fitness for binding NBS DNA
TVSM | ≤ 0.2
MSAT | ≤ 0.2
FACS | ≤ 0.2
LMFY | ≤ 0.2
YSTS | ≤ 0.2
DSTR | ≤ 0.2
LIAR | ≤ 0.2
QPPH | ≤ 0.2
YCET | ≤ 0.2
LGWS | ≤ 0.2
RNGD | ≤ 0.2
MSCY | ≤ 0.2
HMTT | ≤ 0.2
WHKF | ≤ 0.2
RYMK | ≤ 0.2
IYMI | ≤ 0.2
MATQ | ≤ 0.2
NPVQ | ≤ 0.2
QVLD | ≤ 0.2
PVPG | ≤ 0.2
AHAS | ≤ 0.2
FLSG | ≤ 0.2
VCCY | ≤ 0.2
RALE | ≤ 0.2

Variant | one-hybrid fitness for binding NBS DNA
GCTA | ≤ 0.2
FTEL | ≤ 0.2
SANG | ≤ 0.2
AAKY | ≤ 0.2
FMIV | ≤ 0.2
ATWP | ≤ 0.2
PKPG | ≤ 0.2
MSGV | ≤ 0.2
PWRL | ≤ 0.2
GPQV | ≤ 0.2
VCSR | ≤ 0.2
KAQR | ≤ 0.2
SSWP | ≤ 0.2
GMNR | ≤ 0.2
KDRS | ≤ 0.2
RPLA | ≤ 0.2
CVMT | ≤ 0.2
CKRR | ≤ 0.2
PTFR | ≤ 0.2
GSAN | ≤ 0.2
AMSD | ≤ 0.2
SGLP | ≤ 0.2
KCAN | ≤ 0.2
PVFE | ≤ 0.2

Variant | one-hybrid fitness for binding NBS DNA
QMGS | 0.42
GYSG | ≤ 0.2
GEPE | ≤ 0.2
QHRN | 0.334
TVTP | ≤ 0.2
QIKN | 0.223
SMMR | ≤ 0.2
NGMR | ≤ 0.2
KLCA | ≤ 0.2
ACHM | ≤ 0.2
YMHY | ≤ 0.2
NTIE | ≤ 0.2
MRYM | ≤ 0.2
TMSV | ≤ 0.2
PHVI | ≤ 0.2
NEMG | ≤ 0.2
YQTS | ≤ 0.2
SFHM | ≤ 0.2
FSYE | ≤ 0.2
SHWV | ≤ 0.2
SNNF | ≤ 0.2
THVR | ≤ 0.2
YVRG | ≤ 0.2
RMDY | ≤ 0.2

Variant | one-hybrid fitness for binding NBS DNA
RMEF | ≤ 0.2
LVNV | ≤ 0.2
STSC | ≤ 0.2
QSDH | ≤ 0.2
TQGL | ≤ 0.2
SYGA | ≤ 0.2
RNTP | ≤ 0.2
KNTG | ≤ 0.2
HGLG | ≤ 0.2
CTEG | ≤ 0.2
RYPT | ≤ 0.2
VSSF | ≤ 0.2
TLVL | ≤ 0.2
KHPD | ≤ 0.2
RLAQ | ≤ 0.2
RGDI | ≤ 0.2
QLMD | ≤ 0.2
TQRM | ≤ 0.2
RIYL | ≤ 0.2
RCCY | ≤ 0.2
DECN | ≤ 0.2
YMHF | ≤ 0.2
VPTA | ≤ 0.2
YISK | ≤ 0.2

Variant | one-hybrid fitness for binding NBS DNA
QHIR | 0.352
FSKD | ≤ 0.2
RGCA | ≤ 0.2
SFSN | ≤ 0.2
TQSF | ≤ 0.2
DLRE | ≤ 0.2
EKWT | ≤ 0.2
STWR | ≤ 0.2
LDPY | ≤ 0.2
YHCD | ≤ 0.2
QMWT | 0.36
AYTT | ≤ 0.2
DTTN | ≤ 0.2
SQIT | ≤ 0.2
CRHT | 0.202
TSCC | ≤ 0.2
SAYR | ≤ 0.2
TLRI | ≤ 0.2
QRMY | 0.463
RAKC | 0.335
YQPG | ≤ 0.2
QKMH | ≤ 0.2
VWGW | ≤ 0.2
RNQG | ≤ 0.2

Variant | one-hybrid fitness for binding NBS DNA
LSPP | ≤ 0.2
MNDF | ≤ 0.2
ACTF | ≤ 0.2
QGLY | ≤ 0.2
YGGL | ≤ 0.2
NVAA | ≤ 0.2
DLFA | ≤ 0.2
KQSM | ≤ 0.2
ENAS | ≤ 0.2
TDKE | ≤ 0.2
CTTM | ≤ 0.2
TQET | ≤ 0.2
QFAF | ≤ 0.2
GHSF | ≤ 0.2
IEYT | ≤ 0.2
IMVC | ≤ 0.2
YEHV | ≤ 0.2
QYSI | ≤ 0.2
